For test [1], the target named is T1, FLAG-tagged GADS (GRB2-related adaptor protein 2, GRAP2) (human) (UniProt O75791).
T1 sequence: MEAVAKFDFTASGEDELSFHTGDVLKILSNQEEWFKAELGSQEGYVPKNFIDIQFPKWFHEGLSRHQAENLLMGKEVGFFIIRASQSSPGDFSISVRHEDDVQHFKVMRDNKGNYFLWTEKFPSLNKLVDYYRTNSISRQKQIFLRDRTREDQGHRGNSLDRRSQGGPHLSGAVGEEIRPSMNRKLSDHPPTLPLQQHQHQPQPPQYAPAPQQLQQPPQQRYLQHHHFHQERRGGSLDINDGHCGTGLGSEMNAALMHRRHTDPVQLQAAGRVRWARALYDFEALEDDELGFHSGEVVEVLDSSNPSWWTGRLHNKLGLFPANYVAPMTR
The test is described as follows: co-IP; COS-1 cells co-transfected with FLAG-GADS and FLT3 plasmids, stimulated or not with 100 ng/ml FL for five minutes before lysis; anti-FLAG immunoprecipitation, Western blotting. (Immunoblotting shows a protein as a band on a membrane.)

Sequences of proteins named here, by UniProt entry; tags and fusion partners are left off. A change or cut given only in a name is not applied to a line headed by its entry. A line that says so, or that is headed by a name, gives the form on record, which may keep a tag or linker. Residues count along the entry.
wild-type FLT3 (P36888, residues 27-993): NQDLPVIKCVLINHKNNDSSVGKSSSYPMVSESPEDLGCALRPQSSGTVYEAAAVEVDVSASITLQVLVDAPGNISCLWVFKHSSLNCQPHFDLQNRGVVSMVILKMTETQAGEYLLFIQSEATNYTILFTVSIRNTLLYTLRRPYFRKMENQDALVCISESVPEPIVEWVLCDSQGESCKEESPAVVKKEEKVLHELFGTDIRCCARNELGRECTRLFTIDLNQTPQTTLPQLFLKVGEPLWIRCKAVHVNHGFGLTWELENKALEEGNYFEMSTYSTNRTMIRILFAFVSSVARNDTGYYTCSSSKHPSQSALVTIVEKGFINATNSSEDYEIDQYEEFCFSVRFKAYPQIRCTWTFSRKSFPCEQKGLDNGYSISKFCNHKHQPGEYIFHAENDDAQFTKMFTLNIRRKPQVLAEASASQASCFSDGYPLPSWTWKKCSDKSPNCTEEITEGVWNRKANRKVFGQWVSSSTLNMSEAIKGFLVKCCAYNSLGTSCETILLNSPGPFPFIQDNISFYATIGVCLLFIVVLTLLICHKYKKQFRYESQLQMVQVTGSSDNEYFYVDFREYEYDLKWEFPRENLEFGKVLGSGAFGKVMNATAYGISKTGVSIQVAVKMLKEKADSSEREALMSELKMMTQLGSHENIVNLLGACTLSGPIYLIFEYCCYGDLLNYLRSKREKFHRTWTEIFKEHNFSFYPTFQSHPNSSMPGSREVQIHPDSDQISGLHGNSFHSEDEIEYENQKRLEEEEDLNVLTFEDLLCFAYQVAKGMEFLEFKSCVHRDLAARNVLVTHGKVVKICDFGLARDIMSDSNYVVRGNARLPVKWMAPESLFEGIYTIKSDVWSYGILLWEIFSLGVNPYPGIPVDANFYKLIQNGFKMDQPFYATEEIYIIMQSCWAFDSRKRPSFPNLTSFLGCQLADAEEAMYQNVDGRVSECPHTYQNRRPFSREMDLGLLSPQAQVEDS
FLT3-Y955F-Y969F (P36888, form named): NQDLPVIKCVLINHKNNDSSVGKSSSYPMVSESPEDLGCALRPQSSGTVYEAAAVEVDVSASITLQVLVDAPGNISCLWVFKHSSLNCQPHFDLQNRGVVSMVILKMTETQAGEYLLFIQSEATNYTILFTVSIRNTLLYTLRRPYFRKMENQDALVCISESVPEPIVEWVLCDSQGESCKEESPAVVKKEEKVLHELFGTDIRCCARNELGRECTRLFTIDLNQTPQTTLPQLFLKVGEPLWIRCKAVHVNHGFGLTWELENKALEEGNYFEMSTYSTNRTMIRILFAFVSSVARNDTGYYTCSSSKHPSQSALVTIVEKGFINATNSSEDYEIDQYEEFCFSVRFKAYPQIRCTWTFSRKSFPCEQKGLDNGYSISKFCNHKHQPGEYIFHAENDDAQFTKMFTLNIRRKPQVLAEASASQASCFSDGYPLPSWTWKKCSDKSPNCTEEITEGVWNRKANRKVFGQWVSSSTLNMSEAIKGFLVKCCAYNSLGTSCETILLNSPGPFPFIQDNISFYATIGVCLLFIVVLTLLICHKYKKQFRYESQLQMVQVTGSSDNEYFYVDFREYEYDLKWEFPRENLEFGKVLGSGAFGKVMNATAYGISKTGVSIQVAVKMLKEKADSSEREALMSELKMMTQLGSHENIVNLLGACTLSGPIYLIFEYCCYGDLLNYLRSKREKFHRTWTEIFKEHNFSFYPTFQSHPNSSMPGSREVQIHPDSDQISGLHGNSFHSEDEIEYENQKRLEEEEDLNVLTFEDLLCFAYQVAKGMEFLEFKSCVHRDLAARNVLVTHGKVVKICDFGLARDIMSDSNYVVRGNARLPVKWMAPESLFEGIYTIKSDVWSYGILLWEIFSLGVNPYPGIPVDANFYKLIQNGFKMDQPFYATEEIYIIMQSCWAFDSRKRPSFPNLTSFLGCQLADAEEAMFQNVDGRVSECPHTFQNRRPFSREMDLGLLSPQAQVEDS
FLT3-K644A (kinase-dead mutant of FLT3) (P36888, form named): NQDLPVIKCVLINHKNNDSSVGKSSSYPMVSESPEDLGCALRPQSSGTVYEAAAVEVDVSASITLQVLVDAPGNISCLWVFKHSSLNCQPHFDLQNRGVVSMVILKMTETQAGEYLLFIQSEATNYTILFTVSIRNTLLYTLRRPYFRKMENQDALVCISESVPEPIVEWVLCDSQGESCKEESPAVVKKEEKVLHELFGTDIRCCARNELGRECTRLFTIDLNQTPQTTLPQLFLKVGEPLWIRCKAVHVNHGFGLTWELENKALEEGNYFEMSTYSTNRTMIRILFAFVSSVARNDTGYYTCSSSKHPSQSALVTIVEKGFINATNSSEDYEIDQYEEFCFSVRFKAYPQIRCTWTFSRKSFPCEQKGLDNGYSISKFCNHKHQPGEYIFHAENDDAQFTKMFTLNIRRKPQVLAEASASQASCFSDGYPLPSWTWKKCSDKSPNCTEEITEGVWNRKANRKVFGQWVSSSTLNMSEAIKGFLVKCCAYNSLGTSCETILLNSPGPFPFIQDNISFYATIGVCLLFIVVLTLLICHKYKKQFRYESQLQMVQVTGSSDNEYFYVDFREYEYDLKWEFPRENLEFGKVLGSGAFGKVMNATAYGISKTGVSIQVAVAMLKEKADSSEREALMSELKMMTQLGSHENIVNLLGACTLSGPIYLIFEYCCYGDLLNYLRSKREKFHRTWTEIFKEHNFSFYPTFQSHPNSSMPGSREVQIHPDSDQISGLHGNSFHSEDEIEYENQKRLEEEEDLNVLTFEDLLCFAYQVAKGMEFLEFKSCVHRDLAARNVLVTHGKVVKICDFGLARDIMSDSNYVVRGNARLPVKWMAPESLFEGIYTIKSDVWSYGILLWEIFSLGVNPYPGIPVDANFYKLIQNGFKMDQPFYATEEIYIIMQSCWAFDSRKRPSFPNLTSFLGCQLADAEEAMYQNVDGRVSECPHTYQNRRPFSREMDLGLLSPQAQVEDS
FLT3-Y969F (P36888, form named): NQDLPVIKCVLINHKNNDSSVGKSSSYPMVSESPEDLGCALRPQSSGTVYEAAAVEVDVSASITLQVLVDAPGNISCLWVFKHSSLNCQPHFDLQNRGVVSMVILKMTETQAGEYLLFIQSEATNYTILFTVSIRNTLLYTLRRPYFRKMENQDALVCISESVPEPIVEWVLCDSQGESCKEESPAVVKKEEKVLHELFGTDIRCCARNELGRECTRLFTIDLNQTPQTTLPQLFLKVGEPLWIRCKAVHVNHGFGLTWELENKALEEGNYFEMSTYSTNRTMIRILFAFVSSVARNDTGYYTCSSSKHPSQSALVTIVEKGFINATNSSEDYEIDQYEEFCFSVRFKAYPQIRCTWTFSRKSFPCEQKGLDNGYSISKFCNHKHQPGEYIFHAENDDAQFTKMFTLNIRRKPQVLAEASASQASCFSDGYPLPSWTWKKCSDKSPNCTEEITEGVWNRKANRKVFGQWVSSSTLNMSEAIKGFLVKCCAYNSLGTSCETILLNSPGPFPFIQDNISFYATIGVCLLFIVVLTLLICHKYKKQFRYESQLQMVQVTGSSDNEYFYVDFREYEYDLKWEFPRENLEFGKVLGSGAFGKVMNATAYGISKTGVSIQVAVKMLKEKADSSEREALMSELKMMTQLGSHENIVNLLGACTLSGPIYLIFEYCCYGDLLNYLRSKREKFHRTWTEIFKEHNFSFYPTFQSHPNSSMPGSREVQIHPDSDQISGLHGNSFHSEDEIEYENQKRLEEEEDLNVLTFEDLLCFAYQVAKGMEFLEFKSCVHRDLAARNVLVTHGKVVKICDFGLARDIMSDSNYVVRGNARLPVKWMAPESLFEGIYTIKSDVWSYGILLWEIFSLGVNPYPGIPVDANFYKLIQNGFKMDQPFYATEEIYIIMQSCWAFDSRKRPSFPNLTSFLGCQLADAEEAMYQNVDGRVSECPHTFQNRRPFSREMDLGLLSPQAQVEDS

The target in test [2] is T2, GADS stably expressed in Ba/F3-FLT3-WT cells (human) (UniProt O75791).
T2 sequence: T1 sequence
Kind of test: co-IP; Ba/F3 cells expressing FLT3-WT and GADS, stimulated with FL for 5 minutes; lysed in 1% Triton X100 buffer; immunoprecipitation with an anti-GADS antibody.

In test [3] the target is T1, FLAG-tagged GADS (GRB2-related adaptor protein 2, GRAP2) (human). The test is described as follows: co-IP; COS-1 cells co-transfected with FLAG-GADS and FLT3-WT, not stimulated with FL; anti-FLAG immunoprecipitation, Western blotting.
Test [4] has as its target T3, FLAG-tagged GADS-R83E (human) (UniProt O75791).
T3 sequence: T1 sequence with R83E
The test is described as follows: co-IP; COS-1 cells co-transfected with FLAG-GADS and FLT3 plasmids, stimulated or not with 100 ng/ml FL for five minutes before lysis; anti-FLAG immunoprecipitation, Western blotting.

The values that follow come from publication PMC4924701.

Where a chain is given by its changes, count along the chain named. These are yes or no findings as the source states them, for the method shown. In cells and extracts the contact can be indirect. Some binding calls cover weakened binding; strength is not graded here. For some of these results: Sequences can lack the tags named with a protein.

Take “FLT3-Y955F-Y969F (from UniProt P36888 27-993) (receptor)”: the binding result in test [1] was “no binding”.

Turning to “wild-type FLT3 stably expressed in Ba/F3 cells (from UniProt P36888 27-993) (receptor)”, the binding result in test [2] is “binds”.

As to “wild-type FLT3 (from UniProt P36888 27-993) (receptor)”, the figures for the binding result in test [3], in test [1] and in test [4] were “no binding (condition: cells not stimulated with FL)”, “binds” and “no binding”, respectively.

“FLT3-K644A (kinase-dead mutant of FLT3) (from UniProt P36888 27-993) (receptor)”: in test [1], the binding entry is “no binding”.

Take “FLT3-Y969F (from UniProt P36888 27-993) (receptor)”: the binding result in test [1] is recorded as “binds”.
